Results from the supplement of paper PMC11876631.
Residue numbers refer to the chain shown, from its start. Names and notes keep the numbering of the source. ± gives the standard deviation of the averaged measurements. Laboratory Escherichia coli strains with one amino-acid change in an essential protein, pooled on minimal glucose agar with carbenicillin or gentamicin at twice the control MIC (plus kanamycin and chloramphenicol for the plasmids), 48 h. Fold change of barcode share against drug-free plates; higher = less susceptible. Active = above 20 in both replicates (the paper's putatively resistant). '<' = one read or none on drug, '>' = one read or none on a drug-free plate. Shares are relative, so most strains fall below 1 when a few take over. Listed are strains with at least 15 reads on both drug-free plates, and hits; most hits rest on fewer reference reads. Replicate rank correlation about 0.5. Edits are read from barcodes.

B1: serC L70Q (protein)
chain: MAQIFNFSSGPAMLPAEVLKQAQQELRDWNGLGTSVMEVSHRGKEFIQVAEEAEKDFRDLLNVPSNYKVQFCHGGGRGQFAAVPLNILGDKTTADYVDAGYWAASAIKEAKKYCTPNVFDAKVTVDGLRAVKPMREWQLSDNAAYMHYCPNETIDGIAIDETPDFGADVVVAADFSSTILSRPIDVSRYGVIYAGAQKNIGPAGLTIVIVREDLLGKANIACPSILDYSILNDNGSMFNTPPTFAWYLSGLVFKWLKANGGVAEMDKINQQKAELLYGVIDNSDFYRNDVAKANRSRMNVPFQLADSALDKLFLEESFAAGLHALKGHRVVGGMRASIYNAMPLEGVKALTDFMVEFERRHG
B2: serC L70D (protein)
chain: B1 chain with Q70D
B3: serC L70P (protein)
chain: B1 chain with Q70P
B4: serC I192A (protein)
chain: B1 chain with Q70L, I192A
B5: serC F71A (protein)
chain: B1 chain with Q70L, F71A
B6: serC F71W (protein)
chain: B1 chain with Q70L, F71W
B7: serC F71Q (protein)
chain: B1 chain with Q70L, F71Q

The proteins below were run against Escherichia coli (laboratory strain) (assay: barcode share on antibiotic plates over drug-free plates; higher = less susceptible). Settings: antibiotic: carbenicillin; 2× MIC (3.1 µg/mL).
Protocol: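 A pool of E. coli strains, each edited to carry one amino-acid change in an essential protein, was grown for 48 h on minimal glucose agar with or without antibiotic; strain barcodes were sequenced; mean of two replicates.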

Row | Protein | fold change of barcode share
1 | B1 | 0.446 ± 0.0076
2 | B2 | 0.621 ± 0.19
3 | B3 | 0.369 ± 0.076
4 | B4 | 0.623 ± 0.19
5 | B5 | 1.85 ± 1.9
6 | B6 | 0.398 ± 0.16
7 | B7 | 0.308 ± 0.0094

Same assay, conditions: antibiotic: gentamicin; 2× MIC (MIC 0.45 µg/mL)

Row | Protein | fold change of barcode share
8 | B1 | 0.00685 ± 0.0047
9 | B2 | 0.00939 ± 0.0079
10 | B3 | 0.00986 ± 0.0059
11 | B4 | 0.0163 ± 0.015
12 | B5 | 0.00899 ± 0.0045
13 | B6 | < 0.00572
14 | B7 | 0.0107 ± 0.0077
